Measured values from PubChem BioAssay (Tox21).
Where “and” joins values, the source holds several entries; their conditions need not be identical. Equal values may be shown once. This list was built around the results that the source calls inconclusive (neither active nor inactive); the mix of calls is not that of the screen. Potencies beside an inconclusive call are fits to weak or partial responses and may not hold up. Some compounds were tested as several samples or in several runs, with calls that do not always agree. Calls of active or inactive are those of the source. Unless noted, calls come from the whole dose curve.

Assays:
[1] = target: Progesterone receptor (Homo sapiens) (UniProt P06401); test: qHTS assay to identify small molecule antagonists of the progesterone receptor (PR) signaling pathway (AID 1346795; active = well fitted inhibition curve with a large enough effect in the signal ratio in the repeat runs, not every such curve was filed as active; inconclusive = weak or mixed curves; the % refers to the signal ratio); settings: PR-UAS-bla HEK293T, beta-lactamase FRET ratio, 16 h; activity change, negative = inhibition: at 92.4 µM (top of the series) unless noted
Outline: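 Inhibition of R5020-induced (1 nM final) beta-lactamase reporter signal in PR-UAS-bla HEK293T cells was scored by FRET fluorescence after overnight (16 hr) compound treatment.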

[2] = qHTS assay to identify small molecule agonists of the progesterone receptor (PR) signaling pathway - cell viability counter screen (AID 1346799); note: nearly all actives have a fitted effect of over 45% in size
Outline: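 Cytotoxicity in PR-bla HEK293T cells: 16 h compound, 37C; CellTiter-Glo added post-FRET read; luminescence after 30 min RT.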

[3] = qHTS assay to identify small molecule agonists of the TGF-beta/Smad signaling pathway (AID 1346859; active = well fitted activation curve with a large enough effect in the signal ratio in the repeat runs, not every such curve was filed as active; inconclusive = weak or mixed curves; the % refers to the signal ratio); settings: SBE-bla HEK293T, TGF-beta/Smad beta-lactamase reporter, 5 h; activation: at 76.8 µM (top of the series) unless noted
Outline: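 Stable Smad binding element-beta-lactamase HEK 293T cells; 5 hr compound exposure at 37 C under 5% CO2; 2 hr room-temperature substrate step; fluorescence excited at 405 nm, collected at 460 nm and 530 nm.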

[4] = qHTS assay to identify small molecule antagonists of the TGF-beta/Smad signaling pathway - cell viability counter screen (AID 1346824; active = well fitted curve in the direction sought with a large enough effect in the repeat runs; inconclusive = weak or mixed curves; inactive = no such curve, though single readings can be large; an effect the other way counts as inactive or inconclusive; note: nearly all actives have a fitted effect of over 50% in size)
Outline: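 SBE-bla HEK 293T cells were plated overnight at 37 C, then given compounds in DMSO plus TGF-beta1 (added as 0.25 ng/mL solution) for 5 hr. After the bla read, CellTiter-Glo was added to the same wells and luminescence read after 30 min at room temperature.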

[5] = qHTS assay to identify small molecule antagonists of the progesterone receptor (PR) signaling pathway - cell viability counter screen (AID 1346798; active = well fitted curve in the direction sought with a large enough effect in the repeat runs; inconclusive = weak or mixed curves; inactive = no such curve, though single readings can be large; an effect the other way counts as inactive or inconclusive; note: nearly all actives have a fitted effect of over 50% in size)
Outline: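 ATP content as viability readout: CellTiter-Glo luminescence, 30 min room temperature, in PR-UAS-bla HEK293T cells after 16 hr compound/R5020 treatment at 37C and 5% CO2.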
% is set by controls: 0 for no effect and ±100 for the full control effect; potency is the fitted concentration of half-maximal effect; tags give direction and shape of the fitted curve or compound fluorescence and quenching.

UniProt P06401, sequence (P06401 whole entry, looked up): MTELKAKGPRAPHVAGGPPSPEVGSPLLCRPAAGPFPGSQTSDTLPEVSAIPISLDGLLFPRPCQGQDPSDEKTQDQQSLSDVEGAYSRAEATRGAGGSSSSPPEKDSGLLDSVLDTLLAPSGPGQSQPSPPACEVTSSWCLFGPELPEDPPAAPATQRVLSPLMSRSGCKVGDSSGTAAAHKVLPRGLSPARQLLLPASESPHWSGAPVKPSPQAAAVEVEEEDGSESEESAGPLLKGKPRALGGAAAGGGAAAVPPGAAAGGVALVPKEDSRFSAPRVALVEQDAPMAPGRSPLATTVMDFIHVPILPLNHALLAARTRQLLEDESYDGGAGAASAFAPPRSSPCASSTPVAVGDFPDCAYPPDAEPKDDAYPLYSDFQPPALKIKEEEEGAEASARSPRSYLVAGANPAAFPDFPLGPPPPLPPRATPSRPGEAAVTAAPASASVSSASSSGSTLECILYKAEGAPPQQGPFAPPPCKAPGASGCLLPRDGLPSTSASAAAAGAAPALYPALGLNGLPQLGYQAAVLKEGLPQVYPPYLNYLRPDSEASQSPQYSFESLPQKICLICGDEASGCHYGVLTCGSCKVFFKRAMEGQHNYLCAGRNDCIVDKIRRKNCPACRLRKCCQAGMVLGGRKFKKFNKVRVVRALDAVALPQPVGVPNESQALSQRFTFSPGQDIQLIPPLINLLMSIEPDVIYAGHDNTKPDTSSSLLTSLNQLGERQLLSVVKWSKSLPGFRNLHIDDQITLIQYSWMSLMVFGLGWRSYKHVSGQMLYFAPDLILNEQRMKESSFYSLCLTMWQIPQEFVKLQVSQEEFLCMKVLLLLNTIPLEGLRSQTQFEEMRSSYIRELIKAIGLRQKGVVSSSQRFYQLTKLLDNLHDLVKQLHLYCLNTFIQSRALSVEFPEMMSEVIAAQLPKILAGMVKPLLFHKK

OC[C@H]1O[C@@H]2O[C@H]3[C@H](O)[C@@H](O)[C@@H](O[C@H]4[C@H](O)[C@@H](O)[C@@H](O[C@H]5[C@H](O)[C@@H](O)[C@@H](O[C@H]6[C@H](O)[C@@H](O)[C@@H](O[C@H]7[C@H](O)[C@@H](O)[C@@H](O[C@H]8[C@H](O)[C@@H](O)[C@@H](O[C@H]1[C@H](O)[C@H]2O)O[C@@H]8CO)O[C@@H]7CO)O[C@@H]6CO)O[C@@H]5CO)O[C@@H]4CO)O[C@@H]3CO
activity change, negative = inhibition [1]: inconclusive: 3.55% [at 42.5 µM] | Potency [2]: active: 24.4 µM

O=C(O)c1cccc(N(Cc2cccnc2)c2ccc(OC(F)F)c(OC(F)F)c2)c1
Potency [1]: inconclusive: 34.4 µM [rising, partial curve] | Potency [3]: inconclusive: 21.9 µM [rising, partial curve]

Cc1c(Cl)cccc1Nc1ccccc1C(=O)O
Potency [1]: inconclusive: 13.3 µM | Potency [2]: inconclusive: 9.44 µM [cytotoxic, partial curve] | Potency [3]: inconclusive: 12 µM

O=[N+]([O-])c1ccc(O)cc1
Potency [1]: inconclusive: 2.53 µM [falling, full curve, poor fit] | Potency [2]: inconclusive: 25.3 µM [cytotoxic] and inconclusive: 77 µM [cytotoxic, single point]

C[C@@H]1C[C@H]2O[C@@]3(O[C@@H]2C(C)(C)O)[C@H](O)[C@@]2(C)[C@@H]4CC[C@H]5C(C)(C)[C@@H](O[C@@H]6OC[C@@H](O)[C@H](O)[C@H]6O)CC[C@@]56C[C@@]46CC[C@]2(C)[C@@H]13
activity change, negative = inhibition [1]: inconclusive: -26.1% [at 42.5 µM] | Potency [2]: inconclusive: 3.39 µM [rising, full curve]

O=C(O)CCCCC1CCSS1 (stereo unspecified)
activity change, negative = inhibition [1]: inconclusive: 9.56% | Potency [4]: inconclusive: 1.92 µM [cytotoxic, single point] | Potency [3]: inconclusive: 24.2 µM [rising, partial curve, poor fit]

CCCc1c(OCCCCc2nn[nH]n2)ccc(C(C)=O)c1O
Potency [1]: inconclusive: 27.3 µM and inconclusive: 29.8 µM [partial curve] | Potency [3]: inconclusive: 19.5 µM [rising, partial curve] and inconclusive: 13.4 µM [rising, partial curve]

O[C@@H](COc1cccc2ncccc12)CN1CCN(C2c3ccccc3[C@@H]3[C@H](c4ccccc42)C3(F)F)CC1 (stereo partly specified)
activity change, negative = inhibition [1]: inconclusive: -41.2% [at 42.5 µM] | Potency [2]: inconclusive: 0.531 µM [rising, full curve, poor fit]

CCC(Cl)C(Cl)C(Cl)CC(Cl)C(Cl)C(C)Cl (stereo unspecified)
Potency [1]: active: 17.2 µM | Potency [2]: inconclusive: 27.3 µM [cytotoxic, full curve, poor fit] | Potency [4]: inconclusive: 27.5 µM [cytotoxic, partial curve, poor fit] | Potency [3]: inactive

CCC(=O)OC/C=C/c1ccccc1
activity change, negative = inhibition [1]: inconclusive: 2.32% | Potency [2]: inactive

CCC(=O)OCCc1ccccc1
activity change, negative = inhibition [1]: inconclusive: -34.4% | Potency [2]: inactive

CN1C[C@H]2c3ccccc3Oc3ccc(Cl)cc3[C@@H]2C1
Potency [1]: inconclusive: 23.7 µM | Potency [2]: inconclusive: 29.8 µM [cytotoxic, partial curve]

C=CCCC(=O)/C=C/C1C(C)=CCCC1(C)C (stereo unspecified)
Potency [1]: inactive | Potency [2]: inactive | Potency [3]: inactive

Cc1c(-c2cccnc2)c2ccccc2n1CCCCC(=O)O
Potency [1]: inconclusive: 61.1 µM [rising, single point] | Potency [2]: inactive | Potency [3]: inconclusive: 24.5 µM

CCCCCCCCCCCCOC(=O)c1ccc(O)cc1
Potency [1]: inconclusive: 61.6 µM [falling, single point] | Potency [2]: inconclusive: 61.6 µM [rising, partial curve, poor fit]

CC(=O)O[C@@H]1C(=O)O[C@@H]2[C@H]1OC(=O)[C@@H]2OC(C)=O
Potency [1]: inactive | Potency [2]: inactive

O=[N+]([O-])c1ccccc1CCO
Potency [1]: inactive | Potency [2]: inactive

CCc1c(C(=O)NN2CCCCC2)nn(-c2ccc(Cl)cc2Cl)c1-c1ccc(Br)cc1
Potency [1]: active: 3.44 µM | Potency [2]: inconclusive: 12.2 µM [rising, full curve] | Potency [3]: inconclusive: 54.9 µM [rising, single point]

NS(=O)(=O)c1ccc(N2CCCCS2(=O)=O)cc1
Potency [1]: inactive | Potency [2]: inactive | Potency [4]: inactive

CCCCCCCCCCCCO
activity change, negative = inhibition [1]: inconclusive: -32.6% | Potency [3]: inactive

CCCCOCCOC(=O)CCCCCCCCC(=O)OCCOCCCC
Potency [5]: inactive

CC(C)(C)C1(CCc2ccc(Cl)cc2)CO1 (stereo unspecified)
Potency [1]: inconclusive: 15.4 µM [rising, partial curve] | Potency [3]: inactive

CC(=O)OCC=C(C)C
Potency [5]: inconclusive: 45.1 µM [rising, single point]

O=c1cc(-c2ccc(O)cc2)oc2cc(O)cc(O)c12
Potency [5]: inconclusive: 55.2 µM [rising, partial curve] and inconclusive: 30.6 µM [rising, partial curve]

Cc1ccc(C(=O)c2ccccc2)cc1
Potency [5]: inactive

COC(=O)c1cc(S(N)(=O)=O)ccc1OC
Potency [5]: inactive

O=C(Cl)c1ccc([N+](=O)[O-])cc1
Potency [5]: inconclusive: 67.3 µM [rising, single point]
